The whole screen tested about 310,000 compounds, of which about 14,000 (4.5%) showed an effect of 50% or more. The effect is printed as a negative number. The list shows a part of the results.
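Also: peak tail current of the secondary pulse compared with the same well before compound.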

The target in the assay is human ether-à-go-go-related gene (hERG) potassium channel (human, UniProt Q12809). The assay is described as follows: primary screen, population patch clamp on CHO cells stably expressing hERG.
Chain of human ether-à-go-go-related gene (hERG) potassium channel (Q12809 whole entry, looked up): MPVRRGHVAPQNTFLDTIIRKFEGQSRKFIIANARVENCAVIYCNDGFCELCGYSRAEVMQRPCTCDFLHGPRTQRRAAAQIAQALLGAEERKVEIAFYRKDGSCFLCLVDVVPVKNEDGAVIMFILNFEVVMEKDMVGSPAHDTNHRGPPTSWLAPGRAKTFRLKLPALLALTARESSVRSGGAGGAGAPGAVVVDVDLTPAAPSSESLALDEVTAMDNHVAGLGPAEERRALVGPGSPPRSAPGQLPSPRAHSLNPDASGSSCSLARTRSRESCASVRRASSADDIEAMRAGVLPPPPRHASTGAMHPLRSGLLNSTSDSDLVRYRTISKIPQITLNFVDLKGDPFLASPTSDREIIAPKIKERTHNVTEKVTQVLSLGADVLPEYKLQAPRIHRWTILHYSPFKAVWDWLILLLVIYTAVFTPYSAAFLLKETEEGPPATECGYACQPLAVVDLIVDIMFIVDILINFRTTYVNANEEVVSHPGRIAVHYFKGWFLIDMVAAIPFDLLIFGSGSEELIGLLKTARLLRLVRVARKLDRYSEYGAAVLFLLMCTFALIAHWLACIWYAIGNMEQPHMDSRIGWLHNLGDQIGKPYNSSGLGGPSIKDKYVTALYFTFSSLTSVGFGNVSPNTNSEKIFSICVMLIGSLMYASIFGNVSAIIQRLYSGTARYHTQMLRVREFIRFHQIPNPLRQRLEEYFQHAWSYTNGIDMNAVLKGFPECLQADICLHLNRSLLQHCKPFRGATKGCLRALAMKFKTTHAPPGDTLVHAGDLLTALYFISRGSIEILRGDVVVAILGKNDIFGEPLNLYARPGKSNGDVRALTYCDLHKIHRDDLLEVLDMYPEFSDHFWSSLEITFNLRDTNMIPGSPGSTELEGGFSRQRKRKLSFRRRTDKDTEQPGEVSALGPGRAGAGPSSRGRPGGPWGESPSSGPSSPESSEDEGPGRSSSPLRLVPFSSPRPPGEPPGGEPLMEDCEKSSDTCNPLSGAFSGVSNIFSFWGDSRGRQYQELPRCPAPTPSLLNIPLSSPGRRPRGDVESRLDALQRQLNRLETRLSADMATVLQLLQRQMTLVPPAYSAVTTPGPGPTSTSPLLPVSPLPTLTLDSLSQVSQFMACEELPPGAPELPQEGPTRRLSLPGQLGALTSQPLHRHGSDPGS
`COc1cc(OC)cc(C(=O)NNC(=O)c2ccccc2Br)c1`: the “hERG current change (%, negative = inhibition) at 10uM” value is listed as 0.539%.

Consider `Cc1ccc2c(c1)cc(C(=O)NCc1ccccc1)n2C`, for which the “hERG current change (%, negative = inhibition) at 10uM” value was 15.5%.

As to `CCCCn1c(N)c(N(C)C(=O)c2ccc(Br)o2)c(=O)[nH]c1=O`, the “hERG current change (%, negative = inhibition) at 10uM” value turned out to be 0.124%.

On to `Cc1cc(=O)[nH]c(=S)n1-c1ccccc1`, for which the “hERG current change (%, negative = inhibition) at 10uM” value is 11.8%. As for `CC(C)(CN1CCCC1)NC(=O)C1CCC(=O)N(CCCN2CCOCC2)C1` (stereo not shown), the “hERG current change (%, negative = inhibition) at 10uM” value came to 1.89%. Take `Cc1ccc(-c2nnc(SCC(=O)N3CCCC3)o2)cc1C`: the “hERG current change (%, negative = inhibition) at 10uM” value is -0.309%.

Regarding `CN(C)CCNC(=O)Cc1ncc(C(F)(F)F)cc1Cl`, the “hERG current change (%, negative = inhibition) at 10uM” value was found to be 16.5%. Consider `Cc1ccc(C(c2nnnn2CCc2ccccc2)N2CCSCC2)cc1` (stereo not shown), for which the “hERG current change (%, negative = inhibition) at 10uM” value is listed as -13.5%.

`CC(C)OCCCNc1nc2c(c(=O)n(Cc3ccccc3F)c(=O)n2C)n1C`: the “hERG current change (%, negative = inhibition) at 10uM” value is on record as -28.5%. For `O=C(CN1CCN(CC(=O)Nc2ccccc2C(F)(F)F)CC1)Nc1ccccc1F` the value was -30.2%; for `Nc1[nH]nc2nc(N3CCOCC3)nc(-c3ccccc3)c12`, -22.7%; for `CCOC(=O)N1CCN(C(=O)c2cn(C)c3ccc(S(=O)(=O)N4CCOCC4)cc3c2=O)CC1`, 20%. Take `COc1ccc(N2C(=O)CC(N3CCN(c4ccc(C(=O)c5cccnc5)cc4)CC3)C2=O)cc1` (stereo not shown): the “hERG current change (%, negative = inhibition) at 10uM” value is -48.2%. With `CCOC(=O)/C(=N\NC(=O)c1ccccc1)c1ccccc1`, the “hERG current change (%, negative = inhibition) at 10uM” value is -13.4%. For `NC(=O)CC(NC(=S)NCc1ccccc1)C(=O)O` (stereo not shown), the “hERG current change (%, negative = inhibition) at 10uM” value is listed as 6.67%.

As for `Cc1cc(C)cc(NC(=O)CCc2c(C)nn(-c3ccc(N4CCCCC4)nn3)c2C)c1`, the “hERG current change (%, negative = inhibition) at 10uM” value is -5.82%. As for `CCn1cc(CCC(=O)NCCc2ccccc2)c2ccccc21`, the “hERG current change (%, negative = inhibition) at 10uM” value was found to be 11.5%.

Turning to `Nc1nc(-c2ccco2)c(-c2ccco2)s1`, the “hERG current change (%, negative = inhibition) at 10uM” value is -6.16%.

`O=C(NC(Nc1ccccn1)C(Cl)(Cl)Cl)c1ccccc1` (stereo not shown): the “hERG current change (%, negative = inhibition) at 10uM” value turned out to be 9.96%. For `Cc1ccnc(-n2c(-c3ccccc3)nc3ccccc3c2=O)c1` the value was 8.66%; for `O=C1C2C(c3ccccc3)C=CC(c3ccccc3)C2C(=O)N1c1cccnc1` (stereo not shown), -1.18%; for `O=C(CNC(=O)c1ccco1)Nc1ccc(Cl)cc1`, 19.6%. In the case of `O=C(NCc1ccccn1)C(=O)NCC1OCCN1S(=O)(=O)c1ccc(Cl)cc1` (stereo not shown), the “hERG current change (%, negative = inhibition) at 10uM” value was -15.2%. For the compound `COc1ccc(NS(=O)(=O)c2cccc(C(=O)NNC(=O)c3ccc(C)o3)c2)cc1`, the “hERG current change (%, negative = inhibition) at 10uM” value was determined as 7.63%. As to `O=C(CSc1nnc(-c2ccccc2)c(-c2ccccc2)n1)N1CCOCC1`, the “hERG current change (%, negative = inhibition) at 10uM” value is given as -25.1%. As to `O=C(O)c1ccc(S(=O)(=O)N2CCC(c3nc(-c4ccccc4Cl)no3)CC2)cc1`, the “hERG current change (%, negative = inhibition) at 10uM” value amounted to 5.71%. Take `COC(=O)c1oc2c(c1C)C(=O)CCC2`: the “hERG current change (%, negative = inhibition) at 10uM” value amounted to 7.3%. Turning to `Cc1sc(NC(=S)NC(=O)c2ccco2)c(C#N)c1C`, the “hERG current change (%, negative = inhibition) at 10uM” value was 8.39%. `CCC(=O)Nc1ccccc1C(=O)OC(c1ccccc1)c1ccccc1`: the “hERG current change (%, negative = inhibition) at 10uM” value is reported as -5.78%. Then `Cn1c(Cc2cccs2)nnc1SCC(=O)N1CCc2ccccc21`, with -19%; and `NC(=O)c1ccccc1OCc1cccc2ccccc12`, with 17.2%; and `CC(=O)c1cccc(-n2nnnc2SCC(=O)NNC(=O)C(C)C)c1`, with 39.6%. Take `Cc1ccccc1Nc1nnc(C)c(=O)[nH]1`: the “hERG current change (%, negative = inhibition) at 10uM” value is recorded as -11.3%. In the case of `Cc1[nH]c(C)c(S(=O)(=O)N2CCN(c3cccc(Cl)c3)CC2)c1C(=O)N1CCCCC1`, the “hERG current change (%, negative = inhibition) at 10uM” value was -4.51%.

For `COc1cc2c(C(=O)O)c(C)n(C)c2cc1Br`, the “hERG current change (%, negative = inhibition) at 10uM” value is given as 20.3%. Then `CCOC(=O)N1N=C(CC)CC1(O)C(F)(F)F` (stereo not shown), with 1.52%; and `Cc1ccccc1NC(=O)CN1C(=O)COc2ccc(Cl)cc21`, with 6.61%; and `CC1Cc2ccccc2N1C(=S)NC(=O)c1ccco1` (stereo not shown), with 16.2%. Turning to `COC(=O)c1cccc(S(=O)(=O)N(Cc2ccco2)Cc2cc3cc(OC)c(OC)cc3[nH]c2=O)c1`, the “hERG current change (%, negative = inhibition) at 10uM” value is reported as -4.75%. Then `CN(C(=O)CN1C(=O)NC(C)(c2cccc(Br)c2)C1=O)C1CCCCC1` (stereo not shown), with -15.5%; and `COc1ccc(-c2[nH]ncc2CN2CCCN(c3ccccc3)CC2)c(F)c1`, with -45.7%.

For `Cc1occc1C(=O)NNC(=O)Cc1ccccc1`, the “hERG current change (%, negative = inhibition) at 10uM” value was -5.05%.

As for `COc1ccc(-c2nnc(-c3ccc(N)cc3)o2)cc1`, the “hERG current change (%, negative = inhibition) at 10uM” value was -5.64%.

On to `CC(C)(C)c1cc(N)on1`, for which the “hERG current change (%, negative = inhibition) at 10uM” value is listed as 11.1%.

On to `C=CCSc1nnc(-c2ccc([N+](=O)[O-])cc2)o1`, for which the “hERG current change (%, negative = inhibition) at 10uM” value is on record as -0.134%. Turning to `CC(C)(C)C(=O)Nc1nnc(SCC(=O)NC2CC2)s1`, the “hERG current change (%, negative = inhibition) at 10uM” value turned out to be 15.3%.

Values taken from publication PMC4336329 (PLoS ONE, 2015).
